The campaign covered roughly 310,000 compounds. About 2,200 (0.71%) showed an effect of 50% or more. Effects have a minus sign here. The list shows a part of the results.
molecular target: human ether-à-go-go-related gene (hERG) potassium channel (human, UniProt Q12809); assay: primary screen, population patch clamp on CHO cells stably expressing hERG
Sequence (Q12809 whole entry, looked up): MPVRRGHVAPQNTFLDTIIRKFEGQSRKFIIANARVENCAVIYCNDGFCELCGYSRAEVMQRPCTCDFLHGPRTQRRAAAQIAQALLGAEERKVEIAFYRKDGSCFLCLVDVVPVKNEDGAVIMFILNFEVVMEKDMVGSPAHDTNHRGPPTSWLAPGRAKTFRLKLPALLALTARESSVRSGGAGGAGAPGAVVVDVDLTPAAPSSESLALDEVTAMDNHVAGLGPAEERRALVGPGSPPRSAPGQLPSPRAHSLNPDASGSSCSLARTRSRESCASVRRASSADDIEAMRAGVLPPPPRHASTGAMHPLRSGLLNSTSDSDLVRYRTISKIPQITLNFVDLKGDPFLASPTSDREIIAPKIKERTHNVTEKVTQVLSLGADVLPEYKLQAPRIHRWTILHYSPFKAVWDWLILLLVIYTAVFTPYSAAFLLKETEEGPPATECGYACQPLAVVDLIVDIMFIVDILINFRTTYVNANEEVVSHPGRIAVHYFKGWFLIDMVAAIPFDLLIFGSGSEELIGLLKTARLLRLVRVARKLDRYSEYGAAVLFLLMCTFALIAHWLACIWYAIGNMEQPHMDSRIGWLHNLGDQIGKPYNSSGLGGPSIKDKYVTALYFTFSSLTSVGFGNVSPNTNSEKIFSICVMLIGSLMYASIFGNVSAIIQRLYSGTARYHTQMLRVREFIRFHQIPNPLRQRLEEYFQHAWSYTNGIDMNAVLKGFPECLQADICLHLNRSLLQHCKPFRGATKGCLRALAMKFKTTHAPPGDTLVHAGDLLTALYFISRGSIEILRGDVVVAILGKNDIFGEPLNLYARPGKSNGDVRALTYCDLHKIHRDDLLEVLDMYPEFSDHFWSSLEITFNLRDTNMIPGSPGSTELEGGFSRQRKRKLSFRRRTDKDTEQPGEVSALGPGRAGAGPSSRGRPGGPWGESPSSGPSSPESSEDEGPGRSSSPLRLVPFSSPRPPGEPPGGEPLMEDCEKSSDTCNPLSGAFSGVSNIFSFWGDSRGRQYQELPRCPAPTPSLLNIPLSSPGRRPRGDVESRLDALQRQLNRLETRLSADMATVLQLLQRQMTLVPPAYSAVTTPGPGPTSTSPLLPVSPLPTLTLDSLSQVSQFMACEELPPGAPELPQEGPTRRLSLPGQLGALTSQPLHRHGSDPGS

Row | Compound | hERG current change (%, negative = inhibition) at 1uM
1 | COc1cc(OC)cc(C(=O)NCCC(=O)NCCc2ccc(OC)c(OC)c2)c1 | 4.96%
2 | CCN(CC)S(=O)(=O)c1ccc(OC)c(NC(=O)c2cn(CC)c3nc(C)ccc3c2=O)c1 | 15%
3 | Cc1cccc(OCCCn2ccnc2)c1 | 0.0693%
4 | O=c1c2sccc2nc(SCc2cc(=O)n3cc(Cl)ccc3n2)n1-c1ccc(F)cc1 | 7.01%
5 | Cc1ccccc1NC(=O)Cn1nc(C(=O)O)c2ccccc2c1=O | 11.3%
6 | CCN(CC)CCCNc1nc(N)c([N+](=O)[O-])c(NCCO)n1 | 9.54%
7 | Cc1ccccc1CN1CCN(CC(=O)NC(C)c2ccccc2)CC1 (centres unmarked) | 3.82%
8 | COc1ccc(N/C=C2/CCCCC2=O)cc1 | 3.34%
9 | COc1ccc(OCC(=O)N2CCN(C3CCC(c4ccccc4)CC3)CC2)cc1 (centres unmarked) | -5.45%
10 | CSc1nsc(N/N=C/c2ccccc2)c1C#N | 11.9%
11 | Cc1ccc(/C=C/C(=O)OCC(=O)NC(C)c2ccccc2)o1 (centres unmarked) | 8.83%
12 | O=C(NC1(C(F)(F)F)NC(=O)N(CC2CCCCC2)C1=O)c1ccco1 (centres unmarked) | 11.1%
13 | CCN(C(=O)Cn1c(=O)n(Cc2ccccc2)c(=O)c2ccccc21)c1cccc(C)c1 | 6.17%
14 | CCC(=O)OCC(=O)Nc1cc([N+](=O)[O-])ccc1Cl | 12.8%
15 | CCC(CO)Nc1nc2ccc(Cl)cc2c2ccccc12 (centres unmarked) | 15.9%
16 | O=C(NC1CCCCC1)C(=S)NC1CCCCC1 | 19.8%
17 | CC(C)(C)c1ccc(C(=O)Nc2ccc([N+](=O)[O-])cn2)cc1 | 9.99%
18 | Cc1cccc(C)c1NC(=S)N/N=C/c1ccccc1C(=O)O | 15.4%
19 | CN(C)C(CNC(=O)CNC(=O)c1ccc(Br)cc1)c1ccccc1 (centres unmarked) | 0.489%

Row | Compound | hERG current change (%, negative = inhibition) at 1uM
20 | COCC(=O)Nc1nnc(COc2ccccc2)s1 | 9.91%
21 | Cc1sc(-c2ccccn2)nc1OC(=O)c1ccc(Cl)cc1 | 12%
22 | Cc1csc2ncc(C(=O)Nc3ccccc3Cl)c(=O)n12 | 3.77%
23 | Cc1ccc(S(=O)(=O)n2nccc2-c2c(-c3ccccc3)noc2C)cc1 | 12%
24 | CCOC(=O)c1c(CN2CCOCC2)n(-c2ccccc2)c2cc(Br)c(O)cc12.Cl | 9.93%
25 | COc1ccc(CCN2C(=O)CC(NCc3ccc4c(c3)OCO4)C2=O)cc1OC (centres unmarked) | 3.91%
26 | CCN1C(=O)/C(=C/C=C2/SCCN2C)SC1=S | 13.3%
27 | O=C(Nc1nc(-c2ccccc2)c(-c2ccccc2)s1)c1ccc(S(=O)(=O)N(CCCl)CCCl)cc1 | 1.44%
28 | O=C(Cn1nc(C(F)F)cc1C(F)F)NNC(=S)Nc1ccc([N+](=O)[O-])cc1 | 11.9%
29 | CC(=O)NC(CSC(CC(=O)c1ccco1)c1ccc(C)cc1)C(=O)O (centres unmarked) | 26.7%
30 | CCOC(=O)C(C(=O)c1ccccc1)C1CC(C)NC(=S)N1 (centres unmarked) | -1.21%
31 | Cc1ccc(S(=O)(=O)NCc2ccccc2)cc1 | 14.8%
32 | COC(=O)c1ccc(C2C(C(=O)c3ccc(C)o3)=C(O)C(=O)N2c2cc(C)on2)cc1 (centres unmarked) | 24.1%
33 | COc1ccc(CNS(=O)(=O)c2ccc(-n3cccn3)cc2)cc1 | 6.54%
34 | Cc1cc(C)c(NC(=O)CNC(=O)COC(=O)C2=COCCO2)c(C)c1 | 7.04%
35 | O=C(O)C1=C[C@@H](c2coc3ccccc3c2=O)C[C@@H](OCc2ccc(CO)cc2)O1 | 2.17%
36 | Cc1nc(C2CCCCC2)c(-c2ccccc2)c(N2CCOC2=O)c1C | 13.5%
37 | O=C(Nc1ccc2c(c1)OCO2)C1CCN(C(=O)c2ccc(Cl)cc2)CC1 | -59.6%
38 | Cc1ccc(C)c(NC2=NCCCS2)c1 | 2.66%

Row | Compound | hERG current change (%, negative = inhibition) at 1uM
39 | O=C(CCN1C(=O)/C(=C/c2ccccc2F)SC1=S)Nc1cccnc1 | 9.81%
40 | COc1cccc(CNC(=O)C(Cc2ccccc2)n2cccc2)c1 (centres unmarked) | 5.82%
41 | COc1cc2c(cc1OC)C(c1ccc(-c3cc(Cl)ccc3Cl)o1)=NCC2 | -0.62%
42 | O=C(NC1CCCCC1)C(c1ccccc1)N1CCc2ccccc21 (centres unmarked) | 3.05%
43 | O=C(NNC(=O)c1ccccc1-c1ccccc1C(=O)O)c1cccc([N+](=O)[O-])c1 | -3.69%
44 | Cc1ccc(N2C(=O)C3C4C=CC(CNC(=S)N5CCN(c6ccccn6)CC5)(O4)C3C2=O)cc1 (centres unmarked) | 8.44%
45 | CC(C)c1ccccc1OCC(=O)N(C)CC(=O)Nc1ccc(F)cc1 | -4.57%
46 | CCOc1ncccc1C(=O)OCC(=O)N(CC(C)C)C1CCS(=O)(=O)C1 (centres unmarked) | 6.71%
47 | COc1ccc(C(=O)COC(=O)C(CC(C)C)N2C(=O)c3ccccc3C2=O)cc1 (centres unmarked) | -8.7%
48 | COCC(=O)Nc1cc(OC)cc(OC)c1 | 11.4%
49 | O=[N+]([O-])c1ccc(C(O)CN2CCN(Cc3ccccc3)CC2)cc1 (centres unmarked) | -73%
50 | Cc1cnc(C(=O)Nc2nnc(C)s2)cn1 | 7.37%
51 | COc1cc(OC)cc(C(=O)NC(C(=O)Nc2ccc3nc(C)sc3c2)C(C)C)c1 (centres unmarked) | 11.4%
52 | CCOC(=O)C(C)On1c(-c2ccccc2)nc2ccc([N+](=O)[O-])cc21 (centres unmarked) | -7.92%
53 | COc1cc(NC(=O)c2ccco2)ccc1NC(=O)c1ccccc1Cl | 8.83%
54 | CC(C)OCCCn1c(=O)c2ccccc2n2c(CCC(=O)O)nnc12 | 16.4%
55 | Cc1nn(-c2ccccc2)c(Cl)c1C(=O)OCC(=O)N(C)c1c(N)n(Cc2ccccc2)c(=O)[nH]c1=O | 0.852%
56 | COc1ccc(CNC(=O)COC(=O)CCn2c(C)csc2=O)cc1OC | 3.29%

— PMC4336329 (PLoS ONE, 2015)
